# Source: PubChem BioAssay AID686978 (National Center for Advancing Translational Sciences (NCATS), 2013)
# Screen size: about 420,000 compounds; about 64,000 (15%) were called active. Inconclusive means that the source gave no clear call. Such entries were picked first, then a sample of the others. Calls come from the whole dose curve; as a rule, active = well fitted inhibition curve with a large enough effect; inconclusive = small, poorly fitted or top-dose-only effect; inactive = flat fitted curve, though single readings scatter. No potency is given beside an inconclusive call; the fits are too rough.
# Assay: qHTS for Inhibitors of human tyrosyl-DNA phosphodiesterase 1 (TDP1): qHTS in cells in absence of CPT; note: nearly all actives have a fitted effect of over 55% in size
# Settings: DT40 Tdp1-/- hTDP1 cells, no CPT, ATP luminescence, 48 h; activity change, negative = growth inhibition: at 46.2 µM (top of the series) unless noted
# Method in brief: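 Growth kinetics read by CellTiter-Glo luminescence after ≥48 hr at 37 °C. Cells: DT40 Tdp1-/- stably carrying human TDP1, 400 per well, compound exposure in the absence of CPT (DMSO vehicle).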
# % is set by controls: 0 for no effect and ±100 for the full control effect; potency is the fitted concentration of half-maximal effect; tags give direction and shape of the fitted curve.
SMILES,Potency,"activity change, negative = growth inhibition"
CC(C)(C)C(=O)Nc1ccccc1C(=O)Nc1cc(Cl)ccc1Cl,"inconclusive [inhibitor, single point]",–
Cc1nnc(SCCn2c(Br)nc3c2c(=O)[nH]c(=O)n3C)s1,inactive,–
CCOC(=O)C1(CC2CCCCO2)CCN(C(=O)Nc2cccc(SC)c2)CC1 (configuration not stated),"inconclusive [inhibitor, partial curve]",–
Cc1ccnc(NCc2ccc(Cl)cc2)c1,"inconclusive [inhibitor, single point]",–
Cn1cccc1Cc1nnc(SCC(=O)Nc2ccc(Cl)cc2)n1-c1ccc(F)cc1,"inconclusive [inhibitor, partial curve]",–
Cc1ccc(-n2c(=O)c3ccc(C(=O)NCc4ccccc4Cl)cc3n(Cc3cccc(F)c3)c2=O)cc1,"inconclusive [inhibitor, full curve, poor fit]",–
OC(CN1CCOCC1)CN(c1ccccc1)c1ccccc1 (configuration not stated),active: 11.6 µM,–
O=C(CC12CC3CC(CC(C3)C1)C2)Nc1cccc2ncccc12,"inconclusive [inhibitor, single point]",–
COC(=O)[C@]12CCCCC=C1N(Cc1ccc(Cl)cc1Cl)C(=O)[C@H](CC(=O)NCc1ccc(OC)c(OC)c1)C2,"inconclusive [inhibitor, single point]",–
O=C(CSc1ccc(F)cc1)NC(=O)c1ccccc1,inactive,–
CCCC(=O)Nc1ccc(S(=O)(=O)N2CCC(c3nc4ccccc4[nH]3)CC2)cc1,"inconclusive [inhibitor, partial curve]",–
COc1ccc(C(=O)NC(=S)NNC(=O)c2cnccn2)cc1,active: 20.6 µM,–
CC(C)(C)NC(=O)CSc1ccc(C(C)(C)C)cc1,inactive,–
O=C(/C=C/c1ccc(Br)o1)Nc1nccs1,"inconclusive [inhibitor, single point]",–
Cc1ccc(/C([O-])=C(/C(=S)NCc2ccccc2)[n+]2ccccc2)cc1[N+](=O)[O-],"inconclusive [inhibitor, partial curve, poor fit]",–
NC(=O)c1ccc(N2CCN(c3ccccc3O)CC2)c([N+](=O)[O-])c1,"inconclusive [inhibitor, partial curve]",–
COc1cccc(N2CCN(C(=O)c3[nH]c(C)c(C(C)=O)c3C)CC2)c1,active: 4.47 µM,–
Cn1cccc1Cc1nnc(SCC(=O)N2CCc3ccccc32)n1CCc1ccccc1,"inconclusive [inhibitor, partial curve]",–
CC1(C)CC2CC(C)(CN2S(=O)(=O)c2ccc(F)cc2F)C1 (configuration not stated),active: 5.8 µM,–
N#CC(NC(=O)OCc1ccccc1)c1ccccc1 (configuration not stated),inactive,–
COc1cc(OC)c(C(=O)COc2ncnc3ccccc23)c(OC)c1,"inconclusive [inhibitor, single point]",–
CCOc1cc(C(=S)N2CCOCC2)ccc1OC(=O)c1cccc(C)c1,"inconclusive [inhibitor, single point]",–
CCOC(=O)c1cc2c(=O)n3ccccc3nc2n(CC2CCCO2)c1=NC(=O)c1ccccc1OCC (configuration not stated),active: 14.6 µM,–
CC1CCCCC1NC(=S)NC(=O)c1cccs1 (configuration not stated),"inconclusive [inhibitor, single point]",–

SMILES,Potency,"activity change, negative = growth inhibition"
Cc1cc(C)n2nc(SCc3nnc(SCc4ccccc4)s3)nc2n1,"inconclusive [inhibitor, partial curve]",–
COc1ccc(N2CCN(C(CNC(=O)c3c(F)cccc3F)c3ccc4c(c3)OCO4)CC2)cc1 (configuration not stated),active: 16.4 µM,–
COc1cccc(OC)c1C(=O)OCC(=O)/C(C#N)=C(\C)N,inactive,–
CCOC(=O)C(C)Sc1nnc(NC(=O)c2cccc([N+](=O)[O-])c2C)s1 (configuration not stated),"inconclusive [inhibitor, partial curve, poor fit]",–
COC(=O)COc1ccc(S(=O)(=O)NCc2ccncc2)cc1,active: 9.2 µM,–
COc1ccc(-n2cc(CN3CCCC3)c(-c3cccc(F)c3)n2)cc1,active: 20.6 µM,–
CC(C)CN(C(=O)COC(=O)c1cncc(Br)c1)c1c(N)n(Cc2ccccc2)c(=O)[nH]c1=O,inactive,–
COC(=O)Cc1c(C)c2ccc3c(c2oc1=O)CN(Cc1ccc(Cl)cc1)CO3,"inconclusive [inhibitor, single point]",–
CCOc1ccc(-n2cc(-c3ccccc3)c3c(NCc4ccccc4)ncnc32)cc1,"inconclusive [inhibitor, single point]",–
Cc1ccc(NC(=O)Cc2c(Cl)cccc2Cl)cc1S(=O)(=O)N(C)C,active: 16.4 µM,–
CC(=O)COc1ncnc2c(Cl)cc(Cl)cc12,"inconclusive [inhibitor, single point]",–
COc1ccc(C/C(C)=N/NC(=S)Nc2ccccc2)cc1,"inconclusive [inhibitor, single point]",–
COc1ccc(-c2cc(C(F)(F)F)n3ncc(C(=O)N4CCCCC4c4cccnc4)c3n2)cc1 (configuration not stated),"inconclusive [inhibitor, single point]",–
O=C(N/N=C/c1ccc(N2CCOCC2)cc1)c1ccc(NS(=O)(=O)c2cccs2)cc1,"inconclusive [inhibitor, partial curve]",–
O=C(c1cc(C2CC2)nn1-c1ccccc1)N1CCN(Cc2ccccc2)CC1,"inconclusive [inhibitor, single point]",–
COCCn1c(SCc2ccccc2F)nc2c([nH]c3ccccc32)c1=O,"inconclusive [inhibitor, single point]",–
O=C(c1cc(C2CC2)on1)N1CCN(c2ccc(F)cc2)CC1,"inconclusive [inhibitor, single point]",–
Cc1cccc(-c2nnc(SCCOc3ccc4c(C)cc(=O)oc4c3)o2)c1,"inconclusive [inhibitor, partial curve, poor fit]",–
CCN(CC)S(=O)(=O)c1ccc2oc(C(=O)N3CCOCC3)c(C)c2c1,–,inconclusive: -35% [inhibitor]
N/C(Cn1nnc(-c2ccccc2)n1)=N\O,inactive,–
COc1ccc(CN(C)S(=O)(=O)c2ccc3c(c2)OCCO3)cc1,inactive,–
CCCCNC(=O)COC(=O)c1c2c(nc3ccccc13)/C(=C\c1cccs1)CC2,"inconclusive [inhibitor, single point]",–
COc1ccc(NS(=O)(=O)c2cc([N+](=O)[O-])ccc2NN=Cc2ccccc2OCC(=O)O)cc1,inactive,–
COc1ccc(CNC(=O)C2CCN(S(=O)(=O)N3CCC(C)CC3)CC2)c(OC)c1,"inconclusive [inhibitor, single point]",–

SMILES,Potency,"activity change, negative = growth inhibition"
CCCCN1C(=O)c2ccc(C(=O)NC3(C)CCS(=O)(=O)C3)cc2C1=O (configuration not stated),"inconclusive [inhibitor, single point]",–
Cc1ccc(C(=O)Oc2ccc(Br)cc2C(=S)N2CCOCC2)cc1,–,inconclusive: -32.6% [inhibitor]
O=C(c1cc(COc2ccc(F)cc2F)on1)N1CC2C[C@@H]3CC1C[C@H](C2)C3,active: 2.59 µM,–
COCCCNC(=O)c1cccc(OC)c1OC,inactive,–
CC(=O)NC1(C(F)(F)F)C(=O)Nc2c1c(=O)[nH]c(=O)n2CCc1ccccc1 (configuration not stated),inactive,–
Cc1ccc(S(=O)(=O)N2CCCC2C(=O)NC2=NCCS2)cc1 (configuration not stated),inactive,–
CCN(Cc1ccncc1)Cc1ccc2c(c1)CN(C(=O)c1ccc(OC)cc1)CCO2,inactive,–
COc1cccc(NC(=S)N2CCC(Cc3ccccc3)CC2)c1,"inconclusive [inhibitor, partial curve]",–
CC(OC(=O)CCSc1ccccc1)C(=O)Nc1ccc(S(N)(=O)=O)cc1 (configuration not stated),"inconclusive [inhibitor, partial curve]",–
CN(C(=O)CN1C(=O)S/C(=C\c2ccccc2Cl)C1=O)C1CCS(=O)(=O)C1 (configuration not stated),inactive,–
O=C(Nc1ccc(Cl)c(Cl)c1)c1cccnc1,"inconclusive [inhibitor, single point]",–
N#C/C(=C\c1cccc(F)c1)c1nc(-c2cc3ccccc3oc2=O)cs1,inactive,–
Cc1ccc2c(c1)c1c(c(=O)n(Cc3ccccc3)c(=O)n1Cc1cccc(F)c1)n2C,"inconclusive [inhibitor, single point]",–
CCn1ncc(N2CCOCC2)c(Cl)c1=O,inactive,–
O=C1NNC(c2ccccc2)=N/C1=C\c1ccco1,"inconclusive [inhibitor, single point]",–
Cc1ccc2c(c1)NC(=O)C(CC(=O)NCCCN1CCN(c3cc(C)ccc3C)CC1)O2 (configuration not stated),active: 7.31 µM,–
Cc1ccc(Nc2cc(C)nc3ccccc23)c(C)c1,active: 11.6 µM,–
CCCCC[C@@H](C)N1C[C@@H](COCc2ccccc2)Oc2cc(N3CC[C@@H](O)C3)ccc2S1(=O)=O,active: 16.4 µM,–
COC(=O)c1[nH]c2c(c1C)C(=O)CC(c1cc(OC)c(OC)c(OC)c1)C2 (configuration not stated),active: 11.6 µM,–
Cc1cc(S(=O)(=O)Nc2ccc(C(=O)NCCCn3ccnc3)cc2)ccc1F,inactive,–
CC(NC(=O)COC(=O)c1nc(Cl)ccc1Cl)c1ccccc1 (configuration not stated),inactive,–
CC1(C)CC(=O)C(CC(=O)N2CCC(Cc3ccccc3)CC2)C(=O)C1,inactive,–
O=[N+]([O-])c1cccc(S(=O)(=O)N2CCN(c3ccccn3)CC2)c1,"inconclusive [inhibitor, single point]",–
O=C(CCN1C(=O)/C(=C/c2ccccc2Cl)SC1=S)NC1=NCCS1,"inconclusive [inhibitor, single point]",–
